Results on 18 molecules are retold here after the supplement of paper PMC10369915.

This is one part of the list. Rule as the data show it: active = 3.2 or more and inactive = the rest. The signal is at background level for most entries.

B1: PYGB_HUMAN_197_YA (peptide)
chain: WEKARPEYMLPVHFA
B2: PTN6_HUMAN_377_YA (peptide)
chain: MQRAAGPYSVTNCGE
B3: PYGM_HUMAN_473 (peptide)
chain: KTIFKDFYELEPHKF
B4: PTPS_HUMAN_128_YA (peptide)
chain: VLPVGVLYKVKVAET
B5: PTPRE_HUMAN_696 (peptide)
chain: FIDIFSDYANFKGGG
B6: PTPRC_HUMAN_1216 (peptide)
chain: MVSTFEQYQFLYDVI
B7: RAF1_HUMAN_341 (peptide)
chain: GQRDSSYYWEIEASE
B8: PTPRC_HUMAN_681_YA (peptide)
chain: FNQNKNRYVDILPAD
B9: RAI3_HUMAN_317 (peptide)
chain: EETGDTLYAPYSTHF
B10: PTPN18_HUMAN_281 (peptide)
chain: AVQTEEQYRFLYHTV
B11: PTPRJ_HUMAN_1320 (peptide)
chain: NTTAMTIYENLAPVT
B12: RAI3_HUMAN_350_YA (peptide)
chain: WPSPAKDYEVKKEGS
B13: PTN11_HUMAN_62 (peptide)
chain: KIQNTGDYYDLYGGE
B14: PYGL_HUMAN_204 (peptide)
chain: FMLPVHFYGKVEHTN
B15: PTPRA_HUMAN_798_YA (peptide)
chain: AIDAFSDYANFKGGG
B16: PTPS_HUMAN_128 (peptide)
chain: VLPVGVLYKVKVYET
B17: RAI3_HUMAN_320 (peptide)
chain: GDTLYAPYSTHFQLQ
B18: RAPH1_HUMAN_1226 (peptide)
chain: GGSHISGYATLRRGP
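Also: displayed peptides selected on beads carrying the immobilized SH2 domain, with library peptides lacking any tyrosine serving as negative controls.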

The target in the first test is SHP2 C-SH2 domain E139D. The test can be described thus: enrichment score (SH2-bound / input frequency) (ratio); bacterial display of known human phosphotyrosine sites (pTyr-Var adds point mutants) read by sequencing; higher = stronger binding; tyrosines were phosphorylated by kinases first. As to conditions: peptide library: Human pTyr.
For B1, the enrichment score was inactive: 0.983.
For B2, the enrichment score is inactive: 0.864.
Same read-out and setting: under B3 stands inactive: 1.32; under B4, inactive: 1.12; under B5, inactive: 0.951.
Consider B6, for which the enrichment score was inactive: 1.96.
Regarding B7, the enrichment score is inactive: 0.763.
Same read-out and setting: under B8 stands active: 3.33; under B9, inactive: 0.785; under B10, inactive: 0.897.
In the case of B11, the enrichment score was inactive: 0.839.
Same read-out and setting: under B12 stands inactive: 0.793; under B13, inactive: 0.718; under B14, inactive: 2.93.
On to B15, for which the enrichment score is inactive: 0.581.
The same measure, in the same setting: for B16 the value was inactive: 1.25; for B17, inactive: 0.818; for B18, inactive: 1.16.

In another test the target is SHP2 C-SH2 domain wild-type. The description is as above. As to conditions: peptide library: Human pTyr.
In the case of B1, the enrichment score is inactive: 0.705.
Same read-out and setting: for B2 the value was inactive: 0.708; for B3, inactive: 1.1.
On the same count and under the same terms, under B4 stands inactive: 0.809.
With B5, the enrichment score was inactive: 1.1.
Take B6: the enrichment score was inactive: 2.36.
Turning to B7, the enrichment score was inactive: 0.959.
Regarding B8, the enrichment score is active: 9.51.
With B9, the enrichment score was inactive: 0.595.
With B10, the enrichment score was inactive: 0.928.
On the same count and under the same terms, under B11 stands inactive: 0.764; under B12, inactive: 0.992; under B13, inactive: 0.706.
Same read-out and setting: for B14 the value was active: 4.04; for B15, inactive: 0.743.
The same measure, in the same setting: under B16 stands inactive: 1.38; under B17, inactive: 0.752.
Turning to B18, the enrichment score is inactive: 1.58.

Another test concerns the target SHP2 N-SH2 domain L43F. The test is described as above. As to conditions: peptide library: Human pTyr.
As to B1, the enrichment score was inactive: 0.796.
For B2, the enrichment score was inactive: 0.661.
Still for that read-out and setting: for B3 the value was inactive: 1.47.
Still for that read-out and setting: under B4 stands inactive: 0.989.
Still for that read-out and setting: under B5 stands inactive: 1.1; under B6, inactive: 2.2.
For B7, the enrichment score is inactive: 1.03.
In the case of B8, the enrichment score was inactive: 1.13.
With B9, the enrichment score was inactive: 0.674.
On the same count and under the same terms, for B10 the value was inactive: 0.751.
On the same count and under the same terms, for B11 the value was inactive: 0.666; for B12, inactive: 0.967; for B13, inactive: 0.726.
Same read-out and setting: for B14 the value was inactive: 3.04; for B15, inactive: 0.573; for B16, inactive: 1.2.
Consider B17, for which the enrichment score is inactive: 0.583.
Turning to B18, the enrichment score was inactive: 0.746.

The next test addresses SHP2 N-SH2 domain T42A. The test is described as above. Conditions: peptide library: Human pTyr.
On to B1, for which the enrichment score was inactive: 0.754.
For B2, the enrichment score was inactive: 0.626.
Turning to B3, the enrichment score is inactive: 0.832.
Take B4: the enrichment score is inactive: 0.827.
The same measure, in the same setting: under B5 stands inactive: 0.94; under B6, inactive: 2.26; under B7, inactive: 1.1.
Same read-out and setting: under B8 stands inactive: 1.64; under B9, inactive: 0.643; under B10, inactive: 0.878.
On the same count and under the same terms, for B11 the value was inactive: 0.673; for B12, inactive: 0.884.
For B13, the enrichment score was inactive: 0.737.
For the molecule B14, the enrichment score was inactive: 2.57.
Regarding B15, the enrichment score is inactive: 0.639.
On to B16, for which the enrichment score is inactive: 1.24.
On the same count and under the same terms, for B17 the value was inactive: 0.747; for B18, inactive: 0.801.

In a further test the target is SHP2 N-SH2 domain T52S. Described as above. Conditions: peptide library: Human pTyr.
Regarding B1, the enrichment score was inactive: 0.895.
The same measure, in the same setting: for B2 the value was inactive: 0.718.
The same measure, in the same setting: for B3 the value was inactive: 1.3; for B4, inactive: 0.83.
As to B5, the enrichment score is inactive: 1.08.
Still for that read-out and setting: under B6 stands inactive: 2.52; under B7, inactive: 0.97; under B8, inactive: 1.05.
Still for that read-out and setting: for B9 the value was inactive: 0.774; for B10, inactive: 0.899; for B11, inactive: 0.613.
As to B12, the enrichment score is inactive: 0.602.
Take B13: the enrichment score was inactive: 0.69.
On the same count and under the same terms, under B14 stands inactive: 2.65; under B15, inactive: 0.624; under B16, inactive: 1.38.
The same measure, in the same setting: for B17 the value was inactive: 0.759.
The same measure, in the same setting: under B18 stands inactive: 0.654.

Another test concerns the target SHP2 N-SH2 domain wild-type. The description is as above. Conditions: peptide library: Human pTyr.
As for B1, the enrichment score was inactive: 0.726.
On to B2, for which the enrichment score was inactive: 0.833.
On the same count and under the same terms, for B3 the value was inactive: 1.08; for B4, inactive: 0.918; for B5, inactive: 0.993.
Turning to B6, the enrichment score is active: 3.55.
Same read-out and setting: under B7 stands inactive: 0.905; under B8, inactive: 1.15; under B9, inactive: 0.733.
In the case of B10, the enrichment score was inactive: 0.787.
The same measure, in the same setting: under B11 stands inactive: 0.896; under B12, inactive: 0.759; under B13, inactive: 0.77.
On the same count and under the same terms, under B14 stands active: 3.47; under B15, inactive: 0.765; under B16, inactive: 1.66.
On the same count and under the same terms, for B17 the value was inactive: 0.808; for B18, inactive: 0.603.
